About 2,200 (0.71%) of roughly 310,000 compounds showed an effect of 50% or more. Effects have a minus sign here. This is one part of the list.
Each molecule was assayed against human ether-à-go-go-related gene (hERG) potassium channel (human, UniProt Q12809) (assay: primary screen, population patch clamp on CHO cells stably expressing hERG).
Chain of human ether-à-go-go-related gene (hERG) potassium channel (Q12809 whole entry, looked up): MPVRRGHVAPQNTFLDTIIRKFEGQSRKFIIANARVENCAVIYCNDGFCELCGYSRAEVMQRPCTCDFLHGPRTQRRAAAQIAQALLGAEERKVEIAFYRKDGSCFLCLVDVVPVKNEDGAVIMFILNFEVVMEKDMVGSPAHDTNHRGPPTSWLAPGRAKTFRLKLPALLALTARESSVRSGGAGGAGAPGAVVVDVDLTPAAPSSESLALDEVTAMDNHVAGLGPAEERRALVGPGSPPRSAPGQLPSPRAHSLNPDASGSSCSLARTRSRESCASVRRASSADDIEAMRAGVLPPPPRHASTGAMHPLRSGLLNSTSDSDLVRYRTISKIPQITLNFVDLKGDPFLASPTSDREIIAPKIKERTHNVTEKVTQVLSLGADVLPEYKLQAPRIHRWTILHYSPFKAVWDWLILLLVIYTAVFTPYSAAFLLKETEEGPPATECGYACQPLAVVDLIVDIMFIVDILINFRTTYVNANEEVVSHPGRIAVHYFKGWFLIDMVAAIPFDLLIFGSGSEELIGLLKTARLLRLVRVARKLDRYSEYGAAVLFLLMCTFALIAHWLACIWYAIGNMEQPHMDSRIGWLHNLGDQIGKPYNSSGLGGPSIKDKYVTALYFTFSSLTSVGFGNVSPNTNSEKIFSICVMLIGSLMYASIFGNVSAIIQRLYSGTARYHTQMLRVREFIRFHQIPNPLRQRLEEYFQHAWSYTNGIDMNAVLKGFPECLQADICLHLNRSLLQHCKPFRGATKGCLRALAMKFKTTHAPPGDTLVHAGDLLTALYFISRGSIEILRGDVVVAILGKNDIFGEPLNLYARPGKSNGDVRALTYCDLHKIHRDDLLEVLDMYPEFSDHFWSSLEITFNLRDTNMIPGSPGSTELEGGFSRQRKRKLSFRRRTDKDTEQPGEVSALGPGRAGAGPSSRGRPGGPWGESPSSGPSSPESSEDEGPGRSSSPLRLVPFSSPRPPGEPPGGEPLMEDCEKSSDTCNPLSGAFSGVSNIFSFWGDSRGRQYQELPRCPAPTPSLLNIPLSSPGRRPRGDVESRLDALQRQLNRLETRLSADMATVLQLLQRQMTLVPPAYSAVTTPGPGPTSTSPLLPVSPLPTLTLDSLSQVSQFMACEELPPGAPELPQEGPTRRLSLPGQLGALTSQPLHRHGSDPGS

| Structure (SMILES) | hERG current change (%, negative = inhibition) at 1uM [%] |
| --- | --- |
| CN(CC(=O)Nc1ccc(F)c(Cl)c1)S(=O)(=O)c1ccc2c(c1)n(C)c(=O)c(=O)n2C | 9.13 |
| Cc1nc2c(N=Nc3ccccc3F)c(N)nn2c(N)c1C#N | 3.85 |
| COC(=O)[C@H](Cc1c[nH]c2ccccc12)NC(=O)CCCc1c[nH]c2ccccc12 | 8.33 |
| COc1ccc(OCC(=O)Nc2cc3c(cc2C(=O)O)OCCCO3)cc1 | 14.7 |
| O=C(NC1CCCc2ccccc21)C1CCC(CNc2c(N3CCOCC3)c(=O)c2=O)CC1 (stereo not drawn) | 16.2 |
| Cc1cccnc1NC(=O)c1ccc(S(=O)(=O)N2CC(C)OC(C)C2)cc1 (stereo not drawn) | 6.65 |
| CC1CCN(C(=O)c2ccccc2NS(=O)(=O)c2ccccc2)CC1 | 11.4 |
| O.OC[C@H]1O[C@H](OC[C@H]2O[C@H](OC[C@H]3O[C@H](O[C@]4(CO)O[C@H](CO)[C@@H](O)[C@@H]4O)[C@H](O)[C@@H](O)[C@@H]3O)[C@H](O)[C@@H](O)[C@H]2O)[C@H](O)[C@@H](O)[C@H]1O | 21.7 |
| O=C(CSc1ccc2nnc(-c3ccccn3)n2n1)Nc1nccs1 | 7.18 |
| CCOC(=O)C(NC(=O)NC1CCCCC1)(c1ccccc1)C(F)(F)F (stereo not drawn) | -5.25 |
| COc1cc2nc(CN3CCOCC3)n(CC(=O)N3CCCCCC3)c(=O)c2cc1OC | 7.99 |
| N#CC1(NC(=O)COc2cc(F)ccc2[N+](=O)[O-])CCCCC1 | 1.13 |
| Cc1ccc(S(=O)(=O)N2CCN(C(=O)CCCOc3cccc(C)c3)CC2)cc1 | 15.4 |
| O=c1c2ccccc2nc(-c2ccc(Cl)cc2Cl)n1CCCn1ccnc1 | -14 |
| CC(C)=CCC/C(C)=C/C=N/NC(=O)c1ccccc1[N+](=O)[O-] | -0.892 |
| Cc1cnc(C(=O)OCC(=O)N2CCN(S(=O)(=O)c3ccc(Cl)cc3)CC2)cn1 | 6.01 |
| Cc1cc(N2CCC(C)CC2)nc(-c2ccccc2O)n1 | 6.78 |
| OC(CNc1nc(C(F)(F)F)nc2ccccc12)c1ccccc1 (stereo not drawn) | 10.5 |
| COc1ccc(OC)c(NC(=O)c2nc(S(=O)(=O)Cc3ccccc3)ncc2Cl)c1 | 5.45 |
| CCOC(=O)C1=C(C)NC(SCC(=O)OC)=C(C#N)C1c1ccc(C(=O)OC)cc1 (stereo not drawn) | 3.85 |
| CCn1c(SCc2ccc(Cl)cc2)nnc1-c1ccccc1 | 7.72 |
| C/C(N)=C(/C#N)C(=O)CSc1nc2scc(-c3ccccc3)c2c(=O)n1C | 14.9 |
| O=C(NCc1ccc(Cl)cc1)C1CCCCN1S(=O)(=O)c1ccccc1 (stereo not drawn) | 11.7 |
| O=C(CN1CCCCCCC1)Nc1ccc(Cl)cc1Cl | 12.8 |
| Cc1ccc(C2=C/C(=C/c3cccnc3)C(=O)O2)c(C)c1 | 15.8 |
| N#Cc1cccc(NC(=O)CSc2nnc(C3CC3)n2C2CC2)c1 | -11 |

| Structure (SMILES) | hERG current change (%, negative = inhibition) at 1uM [%] |
| --- | --- |
| CO[C@H]1C=CO[C@@]2(C)Oc3c(C)c(O)c4c(O)c(c5c(c4c3C2=O)NC2(CCN(CC(C)C)CC2)N=5)=NC(=O)C(C)=CC=C[C@H](C)[C@H](O)[C@@H](C)[C@@H](O)[C@@H](C)[C@H](OC(C)=O)[C@@H]1C | 15.5 |
| COc1cc2c(cc1OC)C(C1C(=O)CC(C)CC1=O)N(C(=O)CCl)CC2 (stereo not drawn) | 10.6 |
| O=C(O)CCc1ccc(-c2ccc(F)cc2)n1CC(=O)O | 5.46 |
| CCOC(=O)[C@@H]1[C@H]2COc3cc(OC)ccc3[C@@H]2N2C(=O)N(c3cccc(Cl)c3)C(=O)[C@]12C | 20.8 |
| Cc1ccc(Cl)cc1N1CCN(C(=O)C2CCN(S(=O)(=O)c3c(C)nn(C)c3C)CC2)CC1 | 3.41 |
| O=C1COc2ccc(C(=O)c3ccccc3C(=O)O)cc2N1 | 14.2 |
| CC1(C)SC(=S)N(/N=C/c2ccc(O)cc2)C1N(O)C(=O)Nc1ccc([N+](=O)[O-])cc1 (stereo not drawn) | 8.05 |
| CN1CCN(c2nc(-c3ccc(Cl)cc3Cl)nc3ccccc23)CC1 | -58.1 |
| Cc1cc(O)ccc1C1(c2ccc(O)cc2C)OC(=O)c2ccccc21 | -10.2 |
| CN(C)CCCN(C(=O)COc1ccccc1)c1nc2cc3c(cc2s1)OCCO3 | -8.76 |
| Cc1ccc(NC(=O)c2ccc(CSc3nccc(C)n3)cc2)cc1 | -2.54 |
| COC(=O)c1ccc(Cn2cnc3c(cnn3-c3ccc(F)cc3)c2=O)o1 | -1.84 |
| CNC(=O)CSc1ncnc2c1cnn2-c1ccccc1 | 7.62 |
| C=CCC1C=C(C)CC(CC=C)N1 (stereo not drawn) | 4.64 |
| O=C(O)CN1C(=O)/C(=C\c2cc(Br)ccc2OCc2ccc(Cl)cc2Cl)SC1=S | 11.3 |
| Cn1nc(C(=O)N2CCN(c3ccc(F)cc3)CC2)c2c1-c1ccccc1S(=O)(=O)C2 | -16.4 |
| CCOC(=O)c1c(NC(=O)c2ccccc2C(=O)O)sc2c1CCC2 | 2.17 |
| COc1c(O)cc2oc(-c3ccc(O)c(O)c3)cc(=O)c2c1O | 15.7 |
| CC(CCc1ccccc1)NC(=O)/C=C/c1ccc(F)cc1 (stereo not drawn) | -2.83 |
| Cn1c(-c2ccc(F)cc2)cnc1SCC(=O)Nc1ccccc1N1CCOCC1 | 10.9 |
| O=C(NCCS(=O)(=O)NCc1ccc(Cl)cc1)c1ccccc1 | 4.67 |
| COc1ccccc1-c1coc2c(CN3CCCCC3C)c(O)ccc2c1=O (stereo not drawn) | 13 |
| O=C1c2ccccc2C(O)(Cc2ccccc2)N1Cc1ccco1 (stereo not drawn) | 17.4 |
| C/C(CC(=O)NC(C)C)=N\NC(=O)COc1cc(C)c(Br)cc1Br | -21.6 |
| O=C(CC1CCCC1)N1CCCC(Nc2cccc(F)c2)C1 (stereo not drawn) | 10.6 |
